Our source for the z-score values is PubChem BioAssay AID488969 (Vanderbilt High Throughput Screening Facility, 2010).

The full ranking holds about 110,000 compounds; the median of “z-score” is about -0.1, and the highest 2% start at about 2. The list shows a part of the results.

For the assay, the target named is Metabotropic glutamate receptor 8 (Rattus norvegicus) (UniProt P70579). Description: mGluR8 Gi/Go-coupled signaling modulation – cell-based, rat, thallium flux, HTS, primary screen (AID 488969). As to conditions: HEK293 rat mGluR8, GIRK (G protein-gated inwardly rectifying potassium channel) thallium flux, FluoZin2; at 10 µM; stronger effect = higher value; submaximal glutamate (EC20) added with thallium.
Sequence of UniProt P70579 (P70579 whole entry, looked up): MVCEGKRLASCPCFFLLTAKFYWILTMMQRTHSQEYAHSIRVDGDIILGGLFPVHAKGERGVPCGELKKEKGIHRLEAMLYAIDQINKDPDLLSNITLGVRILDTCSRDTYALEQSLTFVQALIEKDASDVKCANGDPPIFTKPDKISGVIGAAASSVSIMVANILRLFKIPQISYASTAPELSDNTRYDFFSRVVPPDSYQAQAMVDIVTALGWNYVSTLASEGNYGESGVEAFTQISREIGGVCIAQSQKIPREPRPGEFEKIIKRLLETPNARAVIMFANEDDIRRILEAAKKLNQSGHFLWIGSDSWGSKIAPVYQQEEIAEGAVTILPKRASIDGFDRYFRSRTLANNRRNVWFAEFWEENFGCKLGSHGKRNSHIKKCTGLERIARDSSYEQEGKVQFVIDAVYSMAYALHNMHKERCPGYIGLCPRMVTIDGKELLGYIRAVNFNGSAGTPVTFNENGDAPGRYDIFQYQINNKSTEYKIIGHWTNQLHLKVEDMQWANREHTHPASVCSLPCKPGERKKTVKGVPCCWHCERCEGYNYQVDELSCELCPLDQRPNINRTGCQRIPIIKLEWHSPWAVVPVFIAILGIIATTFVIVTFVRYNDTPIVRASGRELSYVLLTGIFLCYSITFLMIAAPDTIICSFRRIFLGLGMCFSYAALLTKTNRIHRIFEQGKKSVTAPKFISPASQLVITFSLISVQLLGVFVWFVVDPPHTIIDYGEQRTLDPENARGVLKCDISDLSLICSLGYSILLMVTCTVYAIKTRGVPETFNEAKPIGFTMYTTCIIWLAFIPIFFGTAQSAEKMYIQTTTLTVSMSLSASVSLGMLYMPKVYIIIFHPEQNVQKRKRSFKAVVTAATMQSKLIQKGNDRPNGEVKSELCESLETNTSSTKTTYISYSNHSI
Take `COc1cc(NS(=O)(=O)c2ccc(NC(=S)NC(=O)c3sc4ccccc4c3Cl)cc2)nc(OC)n1`: the z-score is -1.14.
